Over roughly 33,000 sequences, “E-score (-0.5 to 0.5)” has its median near -0.036; the highest 2% begin near 0.37. The list shows a part of the results.

In the test the target is T1, Yer064c (UniProt P40041).
T1 sequence: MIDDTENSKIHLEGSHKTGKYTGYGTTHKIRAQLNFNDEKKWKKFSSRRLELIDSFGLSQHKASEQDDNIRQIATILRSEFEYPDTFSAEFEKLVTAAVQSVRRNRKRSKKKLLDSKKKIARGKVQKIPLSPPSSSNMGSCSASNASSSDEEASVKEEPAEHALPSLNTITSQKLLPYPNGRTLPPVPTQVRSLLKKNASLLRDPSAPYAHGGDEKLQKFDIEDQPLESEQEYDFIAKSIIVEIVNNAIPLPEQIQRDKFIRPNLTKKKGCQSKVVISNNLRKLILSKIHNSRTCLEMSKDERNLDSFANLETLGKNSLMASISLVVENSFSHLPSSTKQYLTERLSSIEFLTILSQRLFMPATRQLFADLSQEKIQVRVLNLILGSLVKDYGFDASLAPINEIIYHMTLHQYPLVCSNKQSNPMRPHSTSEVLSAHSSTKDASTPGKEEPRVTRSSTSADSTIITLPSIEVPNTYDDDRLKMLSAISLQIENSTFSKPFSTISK
Nature of the test: PBM E-score (8-mer binding enrichment) (E-score (-0.5 to 0.5)); higher = stronger / more preferred TF binding; most listed sequences are background and not binding sites. The note with it: protein concentration: 200 nM; construct: GST-full length. The procedure, abridged:
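Detection of bound protein used fluorescent anti-GST, with scans normalised by masliner. The proteins were GST-tagged yeast transcription factors applied at about 100-200 nM to universal all-10-mer Agilent arrays made double-stranded by primer extension. Each ungapped eight-base word, pooled with its reverse complement, was scored with an E-score from the Universal PBM Analysis Suite.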
As to ATCGACAG, the “PBM E-score” value is -0.109.

For CACACAGA, the “PBM E-score” value is 0.127.

On to AACCTATA, for which the “PBM E-score” value came to 0.0106.

As to AGCTGGTC, the “PBM E-score” value is -0.119.

CGTCTAAG: the “PBM E-score” value is 0.166.

CCAAGACG: the “PBM E-score” value was -0.211.

On to ACTGTCCA, for which the “PBM E-score” value was -0.0357.

In the case of CTTGTCGA, the “PBM E-score” value was -0.0359.

Turning to AGTGGTCA, the “PBM E-score” value is -0.0522.

Turning to ATGAGGTC, the “PBM E-score” value is -0.132.

For the sequence CAAACGAA, the “PBM E-score” value worked out at 0.0241.

On to AACAAACT, for which the “PBM E-score” value is 0.0934.

As to CCACCCGG, the “PBM E-score” value is -0.226.

Regarding ACTCAAAG, the “PBM E-score” value is 0.316.

For the sequence CCTCGACC, the “PBM E-score” value is -0.202.

Take CTCAGCGA: the “PBM E-score” value came out at 0.058.

Regarding AGCAAGCC, the “PBM E-score” value is -0.154.

AAGCGTGA: the “PBM E-score” value came out at 0.0763.

As for CCGGATGA, the “PBM E-score” value turned out to be 0.152.

For the sequence CTACCGAG, the “PBM E-score” value was 0.0271.

Take ACATGCAG: the “PBM E-score” value is -0.0766.

With CTTTAATA, the “PBM E-score” value is 0.149.

With AGACAAAC, the “PBM E-score” value is -0.0754.

Take CGTCGAAC: the “PBM E-score” value stood at 0.026.

In the case of CTAGTGGC, the “PBM E-score” value was -0.0411.

On to AACAGGTA, for which the “PBM E-score” value was -0.197.

Consider AATAGGCC, for which the “PBM E-score” value was -0.373.

Regarding CGGTTTAC, the “PBM E-score” value was -0.178.

For TTTAGAAA, the “PBM E-score” value was found to be 0.0151.

As for CGATCTCC, the “PBM E-score” value is -0.107.

Consider GCTCTATA, for which the “PBM E-score” value is -0.219.

On to AGTCCTGA, for which the “PBM E-score” value is 0.274.

For AATGGACT, the “PBM E-score” value turned out to be 0.272.

For the sequence CTGACTGA, the “PBM E-score” value came to 0.395.

As to AAAGTGGG, the “PBM E-score” value came to 0.0344.

AATTATAT: the “PBM E-score” value is -0.0147.

Regarding CGCGCGAG, the “PBM E-score” value is -0.0112.

Take AGAACAAA: the “PBM E-score” value is 0.119.

Consider CAGCTAGC, for which the “PBM E-score” value is -0.174.

For the sequence AATGGGAT, the “PBM E-score” value was -0.259.

As for CACGAGAG, the “PBM E-score” value was -0.0841.

CTAATCTC: the “PBM E-score” value came to 0.196.

Regarding TCAGCTAA, the “PBM E-score” value was found to be 0.0494.

In the case of GACCTGAA, the “PBM E-score” value was found to be 0.0568.

For the sequence CGCATGTC, the “PBM E-score” value is -0.0394.

On to GATACATA, for which the “PBM E-score” value is 0.174.

For CGGAACCG, the “PBM E-score” value was -0.161.

Turning to CGTAACCA, the “PBM E-score” value was 0.0576.

Take CCTTCCCC: the “PBM E-score” value was -0.161.

ACACCAGA: the “PBM E-score” value is 0.127.

As to AAACGTTA, the “PBM E-score” value was 0.0413.

For the sequence CCAAGGGC, the “PBM E-score” value is -0.109.

On to AAAATCCG, for which the “PBM E-score” value was 0.0517.

ATACTATA: the “PBM E-score” value was -0.0244.

On to AAAATCGA, for which the “PBM E-score” value worked out at 0.0463.

Consider GCGTCTGA, for which the “PBM E-score” value worked out at 0.00896.

For the sequence CTGAGGCA, the “PBM E-score” value was -0.136.

Consider CAACTCAA, for which the “PBM E-score” value stood at 0.03.

Turning to CGTAAAAG, the “PBM E-score” value was 0.0646.

Turning to CGATGCGC, the “PBM E-score” value was -0.176.

Regarding AACGATAT, the “PBM E-score” value stood at 0.228.

With CATTGAGC, the “PBM E-score” value is 0.129.

Regarding TAGTCAAA, the “PBM E-score” value turned out to be 0.417.

Take TTACGGAA: the “PBM E-score” value is 0.0639.

As for CGATCTTA, the “PBM E-score” value is -0.114.

For CGAAGAGC, the “PBM E-score” value was -0.184.

As to ACGGTCCT, the “PBM E-score” value is -0.379.

On to ATGCGCTA, for which the “PBM E-score” value was -0.0478.

As to CCGCGTAA, the “PBM E-score” value is -0.0443.

On to CTTAAGAC, for which the “PBM E-score” value came to 0.0115.

Regarding ACGAGACG, the “PBM E-score” value was -0.224.

With GTTTGCCA, the “PBM E-score” value was -0.105.

Take AAACCCAT: the “PBM E-score” value was determined as 0.0621.

With AGTGCCGG, the “PBM E-score” value is -0.267.

For AACCGTGT, the “PBM E-score” value was 0.0249.

As to ATGATGGG, the “PBM E-score” value was -0.00959.

As for GCGTCAAC, the “PBM E-score” value is -0.156.

With ATAGCAAG, the “PBM E-score” value is -0.0436.

In the case of CACTAAGC, the “PBM E-score” value is 0.1.

Turning to AGCTTGAT, the “PBM E-score” value is 0.136.

Take ACTGCACC: the “PBM E-score” value stood at 0.0587.

For CACGCAAG, the “PBM E-score” value is -0.11.

In the case of GTTAGTCA, the “PBM E-score” value came out at 0.49.

For CGGGGACA, the “PBM E-score” value was -0.232.

CGAGGAGA: the “PBM E-score” value was -0.232.

For ATCTGTGC, the “PBM E-score” value is -0.182.

(Values after the supplement of paper PMC3334620.)
